# Reference: PubChem BioAssay AID1030 (National Center for Advancing Translational Sciences (NCATS), 2008)
# Hit rate of the full screen: of about 220,000 compounds, about 16,000 (7.3%) were called active. Inconclusive results, whose numbers are uncertain, are shown with a selection of clear calls. Calls follow the shape of the dose curve; as a rule, active = well fitted inhibition curve with a large enough effect (not every such curve was filed as active); inconclusive = small, poorly fitted or top-dose-only effect, or another doubt; inactive = no such curve, though single readings can be large or run the other way. Potencies of inconclusive entries are left out as doubtful fits.
# Target: Aldehyde dehydrogenase 1A1 (Homo sapiens) (UniProt P00352)
# Assay: qHTS Assay for Inhibitors of Aldehyde Dehydrogenase 1 (ALDH1A1);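 as to activity, negative = inhibition: plate controls were no enzyme wells and a reference inhibitor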
# Conditions: Purified ALDH1A1, NADH fluorescence, propionaldehyde substrate; series mostly up to 75.3 µM; activity, negative = inhibition: at the top concentration
# Potency is read from the fitted curve at half-maximal effect; tags tell the direction and shape of the fitted curve.
# UniProt P00352, sequence (P00352 whole entry, looked up): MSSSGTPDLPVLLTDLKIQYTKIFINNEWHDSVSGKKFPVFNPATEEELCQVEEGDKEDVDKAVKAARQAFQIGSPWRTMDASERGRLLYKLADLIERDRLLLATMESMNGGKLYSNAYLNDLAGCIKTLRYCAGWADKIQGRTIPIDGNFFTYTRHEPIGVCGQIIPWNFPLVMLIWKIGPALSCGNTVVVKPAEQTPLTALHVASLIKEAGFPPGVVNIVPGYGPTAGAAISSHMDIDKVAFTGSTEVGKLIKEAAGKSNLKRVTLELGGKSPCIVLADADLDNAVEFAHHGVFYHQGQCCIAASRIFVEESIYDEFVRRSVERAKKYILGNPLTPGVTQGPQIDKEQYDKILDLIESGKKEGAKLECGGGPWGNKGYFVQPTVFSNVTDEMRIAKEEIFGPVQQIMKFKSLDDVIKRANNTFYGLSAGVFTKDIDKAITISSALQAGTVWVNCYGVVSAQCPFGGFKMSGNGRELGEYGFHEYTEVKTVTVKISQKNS
Structure (SMILES),Potency,"activity, negative = inhibition"
C=CCn1c(CCn2c3ccccc3c3ccccc32)n[nH]c1=S,"inconclusive [inhibitor, single point]",
CC(=O)Oc1ccccc1N(C(C)=O)S(=O)(=O)c1ccc(C)cc1,,inactive: -3.6%
Cc1cc(NC(=O)C2CCN(S(=O)(=O)c3cccs3)CC2)no1,,inactive: -2.23%
O=C(CCOc1ccccc1)OCC(=O)c1cc2ccccc2o1,,inactive: -7.11%
CCOC(=O)c1c(O)c2ccccc2oc1=O,"inconclusive [inhibitor, single point]",
COC(=O)c1ccc(N/C(C)=C/C(=O)c2ccc(C)o2)cc1,,inactive: -2.34%
CCc1ccccc1NC(=O)C(CC)Sc1nc2cc3c(cc2c(=O)n1Cc1ccco1)OCO3 (configuration not stated),"inconclusive [inhibitor, single point]",
CCOC(=O)c1cc(-c2ccccc2)sc1NC(=O)CN1C(=O)NC(CC)(c2ccc(F)cc2)C1=O (configuration not stated),"inconclusive [inhibitor, single point]",
O=C1NCC2(CCN(CCc3ccccc3)CC2)O1,inactive,
CSc1ncc(Cl)c(C(=O)C(C#N)c2nc3c(C)cc(C)cc3c(=O)[nH]2)n1 (configuration not stated),,inactive: -10.3%
CCCSc1ncc(Cl)c(C(=O)Nc2ccc(S(=O)(=O)N3CC(C)OC(C)C3)cc2)n1 (configuration not stated),"inconclusive [inhibitor, single point]",
COc1ccc(-n2c(SCC(=O)NCCC(C)C)nc3ccsc3c2=O)cc1,active: 20 µM,
Nc1c(C(=O)NCc2ccco2)c2nc3ccccc3nc2n1CCc1ccccc1F,"inconclusive [inhibitor, partial curve]",
COCCNC(=O)c1cc2c(=O)n3cccc(C)c3nc2n(Cc2ccncc2)c1=N,"inconclusive [inhibitor, partial curve]",
O=C(NCc1ccc2c(c1)OCO2)C1CCC(CNS(=O)(=O)c2ccc(Cl)cc2)CC1 (configuration not stated),,inactive: 5.95%
O=C(N/N=C/C=C/c1ccc([N+](=O)[O-])cc1)C1COc2ccccc2O1 (configuration not stated),active: 25.1 µM,
COc1ccc(CNCCC(c2ccccc2)C2CCOC(C)(C)C2)cc1 (configuration not stated),,inactive: -2.3%
CCCc1cc(C(=O)Nc2cc(OC)c(Cl)cc2OC)no1,"inconclusive [inhibitor, partial curve]",
CCNc1ncc2ncc(=O)n(Cc3ccc(F)cc3)c2n1,"inconclusive [inhibitor, partial curve]",
Cc1ccc(N/N=C/c2c(C)c(C#N)c(=O)n(C)c2O)cc1C,active: 0.794 µM,
Cc1ccc(C)c(/C(O)=C2\C(=O)C(=O)N(Cc3cccnc3)C2c2cccnc2)c1 (configuration not stated),"inconclusive [inhibitor, single point]",
CC(C)CCNC(=O)c1ccc(CS(=O)(=O)Cc2ccccc2F)o1,,inactive: -3.79%
CC(C)(C)c1ccc(OCC(=O)N(c2ccccn2)C2CCCCC2)cc1,,inactive: -5.3%
CS(=O)(=O)c1ccc2nc(NC(=O)c3cc4ccccc4o3)sc2c1,"inconclusive [inhibitor, single point]",
Nc1ncnc(Nc2ccccn2)c1[N+](=O)[O-],,inactive: -1.65%
O=C(Nc1nc2ccccc2s1)c1ccc(OCC2CCCO2)cc1 (configuration not stated),"inconclusive [inhibitor, partial curve]",

Structure (SMILES),Potency,"activity, negative = inhibition"
CC1(C)CC(=O)C(/C=N/n2c(C(F)(F)F)nc3ccccc3c2=O)=C(O)C1,active: 25.1 µM,
COc1ccc(-c2nc(N)n(C(=O)c3ccccc3Cl)n2)cc1,,inactive: -0.396%
CCCn1c(=O)c2c(nc3n2CCS3)n(C)c1=O,,inactive: 13.4%
Clc1ccccc1-c1nc(-c2ccccc2)n[nH]1,,inactive: 12.2%
Cc1nnc2n(c1=O)C(CS(=O)(=O)c1ccc3ccccc3c1)CS2 (configuration not stated),"inconclusive [inhibitor, partial curve]",
CC(=O)Nc1nnc(-c2ccc3c(c2)CCCC3)o1,,inactive: -7.5%
CCn1c2ccccc2c2nnc(SCC(=O)N3CC(C)OC(C)C3)nc21 (configuration not stated),active: 20 µM,
CSc1nc(O)c(/C=C2\C=Nc3ccccc32)[nH]1,"inconclusive [inhibitor, single point]",
CCN(CC)c1ccc(C(=O)n2cnc3ccccc32)cc1,"inconclusive [inhibitor, single point]",
CCOC(=O)c1ccc(-n2c(O)c(/C=N/NC(=O)C3COc4ccccc4O3)c3ccccc3c2=O)cc1 (configuration not stated),,inactive: -15.2%
Cc1cc(N2CCN(C)CC2)nc2ccc(NC(=S)N3CCN(c4cccc(Cl)c4)CC3)cc12,"inconclusive [inhibitor, single point]",
Cc1cccc(OCCC(=O)Nc2cc(S(=O)(=O)N3CCCCC3)ccc2N2CCOCC2)c1,,inactive: -16.5%
CNc1nc(-c2ccc(C(=O)N(C)C)cc2)nc2ccccc12,,inactive: 4.45%
CN(C)c1ccc(/C=N/n2c(-c3cccnc3)n[nH]c2=S)cc1,"inconclusive [inhibitor, single point]",
CSc1nnc(NC(=O)CCc2ccccc2)s1,"inconclusive [inhibitor, partial curve, poor fit]",
Nc1nc(SCC(=O)N2N=C3/C(=C/c4ccco4)CCCC3C2c2ccco2)n[nH]1 (configuration not stated),"inconclusive [inhibitor, single point]",
COc1cccc(-n2nnc3c(=O)n(Cc4ccc(Br)cc4)cnc32)c1,,inactive: 9.28%
O=C(CCc1ccc(S(=O)(=O)N2CCOCC2)cc1)N1CCc2ccccc2C1,,inactive: -5.84%
COC(=O)Cn1c(=NC(=O)c2ccc(OC)c(OC)c2)sc2cc(OC)ccc21,"inconclusive [inhibitor, partial curve]",
COc1cc(C(=O)NC(c2ccccc2)c2ccccc2)cc(Cl)c1OC,active: 2 µM,
O=C(Cc1ccc(F)cc1)Nc1nnc(SCC(=O)N2CCCCC2)s1,"inconclusive [inhibitor, partial curve, poor fit]",
CC(Sc1nnnn1-c1ccc(Cl)cc1)C(=O)NCC(=O)Nc1ccc(F)c(F)c1F (configuration not stated),,inactive: 2.74%
CCOc1ccccc1C(=O)N1CCC(n2nnc3cc(C(F)(F)F)ccc32)CC1,active: 28.2 µM,
COc1ccc(C(=S)N2CCCC2)cc1,,inactive: 4.57%
CCOC(=O)c1cnn(-c2nc(OCC)cc(OCC)n2)c1C,,inactive: 9.5%
COc1ccc(-n2cccc2/C=C2\C(=N)N3N=C(C(C)C)SC3=NC2=O)cc1,"inconclusive [inhibitor, partial curve]",

Structure (SMILES),Potency,"activity, negative = inhibition"
COc1ccc(-c2ccnc3nc(Sc4ncc(C(F)(F)F)cc4Cl)nn23)cc1,"inconclusive [inhibitor, partial curve]",
C=CCn1c(SCCN2CCOCC2)nc2c1c(=O)[nH]c(=O)n2C,,inactive: -5.7%
COc1ccc(-c2cc(-c3cccs3)nc3sc(C#N)c(N)c23)cc1,"inconclusive [inhibitor, partial curve]",
CCN(C(=O)c1ccc2c(Cl)c3c(nc2c1)CCC3)c1cccc(C)c1,"inconclusive [inhibitor, partial curve, poor fit]",
COc1ccc(C(=O)NC(=S)NCC2CCCO2)cc1 (configuration not stated),"inconclusive [inhibitor, single point]",
CCCCC(=O)NC(=S)Nc1nnn(CCC)n1,active: 0.501 µM,
O=C1CC(c2ccccc2)Sc2nc(-c3ccccc3)c(-c3ccccc3)n21 (configuration not stated),"inconclusive [inhibitor, full curve]",
OC(c1cc(-c2ccc(Cl)cc2)nc2ccccc12)C1CCCCN1 (configuration not stated),,inactive: -11.3%
Cn1c2c(c(=O)n(C)c1=O)C(c1ccc(F)cc1)C(C#N)=C(N)O2 (configuration not stated),,inactive: 5.38%
O=C(N/N=C\c1ccco1)c1cncc(Br)c1,"inconclusive [inhibitor, single point]",
Cc1cc2c(cc(C(=O)NCCCN3CCOCC3)n2Cc2ccc(Cl)cc2)o1,"inconclusive [inhibitor, partial curve]",
COc1cc(Nc2ccc(C(=O)O)cc2[N+](=O)[O-])cc(OC)c1,,inactive: 9.35%
CO[C@H]1COC(=O)[C@H]2CCCN2C(=O)C/C=C\[C@@H](C)[C@H](OC)COC(=O)[C@@H](OCc2ccccc2)/C=C\[C@@H]1C,,inactive: -5.72% [at 13.5 µM]
CN(C(=O)c1ccc(OC2CCN(C(=O)c3cccnc3)CC2)cc1)C1CCCCC1,"inconclusive [inhibitor, single point]",
O=C1C2C(C(=O)N1c1ccccc1)N1CCCN1C2c1ccccc1 (configuration not stated),,inactive: 0.825%
Cc1cc(C)n(-c2ccc(C(=O)NCc3cccs3)cc2)n1,,inactive: 0.122%
CCOc1ccc(NC(=S)N(Cc2ccc(N(C)C)cc2)Cc2ccco2)cc1,active: 8.91 µM,
COCCNS(=O)(=O)c1ccc(SC)cc1,"inconclusive [inhibitor, single point]",
S=C(NCCc1ccccn1)Nc1cccc(Cl)c1,,inactive: 1.02%
O=C1C=CCCC1,"inconclusive [inhibitor, partial curve]",
COc1ccc(C(=O)CCC(=O)N2CCN(c3ccc(N4CCOCC4)nn3)CC2)cc1,"inconclusive [inhibitor, single point]",
COc1cccc([C@@H]2Oc3ccc(Br)cc3C(=O)[C@H]2OC(=O)NCCc2ccc(OC)c(OC)c2)c1,"inconclusive [inhibitor, single point]",
O=C(Nc1ccc(-c2csc(-c3ccccc3)n2)cc1)c1ccccc1Cl,"inconclusive [inhibitor, partial curve]",
O=C(CSc1ccc2nnc(-c3ccccn3)n2n1)NCC1CCCO1 (configuration not stated),"inconclusive [inhibitor, partial curve]",
CNC(=S)Nc1ccc(C23CC4CC(CC(C4)C2)C3)cc1,,inactive: -3.07%
